In all, about 310,000 compounds went through this assay and about 2,200 (0.71%) showed an effect of 50% or more. Effects have a minus sign here. This is one part of the list.

The results in this text go back to publication PMC4336329 (PLoS ONE, 2015).

The target in this experiment is human ether-à-go-go-related gene (hERG) potassium channel (human, UniProt Q12809). Kind of experiment: primary screen, population patch clamp on CHO cells stably expressing hERG.
Sequence of human ether-à-go-go-related gene (hERG) potassium channel (Q12809 whole entry, looked up): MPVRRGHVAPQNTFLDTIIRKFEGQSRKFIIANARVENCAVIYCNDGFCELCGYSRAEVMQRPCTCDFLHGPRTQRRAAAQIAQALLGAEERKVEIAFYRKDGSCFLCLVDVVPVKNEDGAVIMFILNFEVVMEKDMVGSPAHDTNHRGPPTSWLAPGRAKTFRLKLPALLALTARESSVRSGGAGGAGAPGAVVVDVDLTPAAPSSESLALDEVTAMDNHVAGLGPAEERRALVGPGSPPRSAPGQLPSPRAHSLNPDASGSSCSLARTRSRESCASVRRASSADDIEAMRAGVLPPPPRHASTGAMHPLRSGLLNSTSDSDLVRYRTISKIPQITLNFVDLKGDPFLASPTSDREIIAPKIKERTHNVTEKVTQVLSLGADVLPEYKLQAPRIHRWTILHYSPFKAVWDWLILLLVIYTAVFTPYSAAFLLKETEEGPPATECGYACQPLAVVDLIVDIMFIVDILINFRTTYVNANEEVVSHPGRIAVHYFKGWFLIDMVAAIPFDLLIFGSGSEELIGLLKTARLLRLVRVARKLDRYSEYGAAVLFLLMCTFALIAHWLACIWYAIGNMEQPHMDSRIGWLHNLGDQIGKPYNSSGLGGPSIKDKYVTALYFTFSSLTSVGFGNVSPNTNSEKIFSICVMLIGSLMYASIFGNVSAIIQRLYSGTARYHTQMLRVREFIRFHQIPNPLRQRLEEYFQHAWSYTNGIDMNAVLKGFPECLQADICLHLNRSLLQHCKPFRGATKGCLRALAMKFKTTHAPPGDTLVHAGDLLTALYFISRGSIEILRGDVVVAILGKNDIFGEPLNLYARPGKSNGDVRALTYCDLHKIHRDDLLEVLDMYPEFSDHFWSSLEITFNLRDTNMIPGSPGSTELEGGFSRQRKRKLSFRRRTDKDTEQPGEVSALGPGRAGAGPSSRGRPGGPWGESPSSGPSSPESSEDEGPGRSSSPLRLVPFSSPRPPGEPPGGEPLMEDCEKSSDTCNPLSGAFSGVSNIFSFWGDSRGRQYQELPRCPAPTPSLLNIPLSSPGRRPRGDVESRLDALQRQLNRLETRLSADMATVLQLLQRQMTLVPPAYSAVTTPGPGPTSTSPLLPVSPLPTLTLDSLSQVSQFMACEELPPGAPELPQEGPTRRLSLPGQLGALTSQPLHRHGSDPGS
Regarding `COc1ccc(O)c(C2=Nc3ccccc3N=C(c3ccccc3)C2)c1`, the “hERG current change (%, negative = inhibition) at 1uM” value was 4.29%. For `COc1ccc(OCCNC(=O)c2ccccc2OCC(=O)Nc2ccc(NC(C)=O)cc2)cc1` the value was -4.32%; for `CC(C)Cn1c(SCC(=O)c2c(N)n(C)c(=O)n(C)c2=O)nc2ccccc21`, 9.61%; for `CCOc1ccc(-c2[nH]ncc2Oc2ccccc2OC)c(O)c1`, 8.33%. For `CCN(CCCNC(=O)c1cc2c(-c3cccc(OC)c3)nn(C)c2s1)Cc1ccccc1` the value was 3.66%; for `Cc1ccc(/C=N/NC(=O)c2ccncc2)cc1`, 12.5%; for `COc1cccc(CNC(=O)c2ccc(C)c(S(=O)(=O)N3CCOCC3)c2)c1`, 2.8%.

`COc1cccc(NC(=O)CSc2nnc(-c3ccoc3C)n2CC2CCCO2)c1` (stereo not shown): the “hERG current change (%, negative = inhibition) at 1uM” value came out at 11.9%. With `C#CCOc1nc(Nc2cccc([N+](=O)[O-])c2)nc(OCC#C)n1`, the “hERG current change (%, negative = inhibition) at 1uM” value is listed as -4.7%. In the case of `COc1cccc(CN2CCN(C(=O)c3cccc4ccccc34)CC2)c1OC.O=C(O)C(=O)O` it was 7.2%; in that of `Clc1ccccc1-c1nc(-c2ccncc2)no1`, 12%. In the case of `O=C(CN1C2CCCC1CC(NC(=O)c1ccccc1)C2)Nc1ccccc1C(F)(F)F` (stereo not shown) it was 12.3%. For `Cc1ccc(C23CC4CC(CC(NC(=O)NC(C)(C)CO)(C4)C2)C3)cc1` the value was 4.41%; for `COCCCNC(=O)c1cc2c(-c3ccc(Cl)cc3)nn(C)c2s1`, 13.3%; for `COc1ccc2c(c1)O[C@H](c1ccc3c(c1)OCO3)[C@@H](OC(=O)N[C@H](C)C1CCCCC1)C2=O`, -0.286%. `Cc1cccc(NC(=O)CN2C(=S)NC(C)(C)CC2C)c1C` (stereo not shown): the “hERG current change (%, negative = inhibition) at 1uM” value was determined as 10.9%. In the case of `COc1ccc(CC(=O)NC(C)c2nnc(SCC(=O)Nc3ccccc3F)n2C)cc1` (stereo not shown) it was 8.61%; in that of `CC(=O)c1ccc(NC(=O)COc2ccccc2C(=O)Nc2ccccc2)cc1`, 10.3%; in that of `O=S(=O)(c1ccc(Cl)cc1)c1cc(O)ccc1O`, 11.8%. In the case of `COc1ccc(C2CC(=O)c3cnc(NC(=O)c4ccccc4)nc3C2)c(OC)c1` (stereo not shown) it was -2.79%. For `CC1=NN(c2ccccc2)C(=O)/C1=C\c1cc(C)n(C)c1C` the value was 12.2%; for `CCOc1ccccc1NC(=O)N1CCC(n2nnc3cc(C)ccc32)CC1`, -0.424%; for `CCOc1ccc2ccccc2c1C1NC(=O)NC(C)=C1C(=O)OCCOC` (stereo not shown), 13.7%.

In the case of `CCOc1ccc(NC(=O)CC(Cc2cc(C)cc(C)c2)C(=O)O)cc1` (stereo not shown), the “hERG current change (%, negative = inhibition) at 1uM” value was 3.96%.

Regarding `O=C(Oc1ccccc1N1C(=O)C2CCCCC2C1=O)c1ccccc1F` (stereo not shown), the “hERG current change (%, negative = inhibition) at 1uM” value stood at 2.76%.

As to `CN(c1ccccc1)S(=O)(=O)c1ccc(-c2ccccc2)cc1`, the “hERG current change (%, negative = inhibition) at 1uM” value was 12.8%. Take `COc1ccc([N+](=O)[O-])cc1C1NN=C(c2cccc3ccccc23)S1` (stereo not shown): the “hERG current change (%, negative = inhibition) at 1uM” value is reported as -0.05%. For `CCOC(=O)C(NC(=O)Nc1ncccn1)(Oc1ccccc1)C(F)(F)F` (stereo not shown) the value was -5.94%; for `Cc1nn(S(=O)(=O)c2ccc(C(C)(C)C)cc2)c(C)c1S(=O)(=O)N1CCOCC1`, 12.5%; for `CC(C(=O)Nc1ccccc1)c1ccc(-c2ccccc2)c(F)c1` (stereo not shown), 4.24%. For the molecule `O=C(c1ccccc1)N1CCN(C(=O)C23CC4CC(CC(C4)C2)C3)CC1`, the “hERG current change (%, negative = inhibition) at 1uM” value is 1.28%. For `O=C(COc1nc2ccccc2nc1N1CCOCC1)Nc1ccc(S(=O)(=O)N2CCCC2)cc1` the value was 5.77%; for `CC(=O)OCC1OC(Nc2cccc(C)c2)C(OC(C)=O)C(OC(C)=O)C1OC(C)=O` (stereo not shown), -0.217%; for `CCOC(=O)c1c(C)[nH]c(C(=O)COC(=O)c2ccc(F)c(S(=O)(=O)N3CCOCC3)c2)c1C`, 14.4%.

Consider `O=C(COC(=O)/C=C/c1ccc(Cl)cc1)NCCN1C(=O)CSC1=O`, for which the “hERG current change (%, negative = inhibition) at 1uM” value is recorded as 5.65%. For `CN(C)CCNC(=O)c1ccc(Cl)s1` the value was -8.78%; for `COC(=O)c1ccc(CSC2=NCCS2)cc1`, 6.73%; for `CCOc1ccc(CCNC(=O)C(O)c2ccccc2)cc1` (stereo not shown), 6.82%. In the case of `O=C(COc1ccc(Cl)cc1Cl)NCCCCc1ccccc1` it was 20.3%; in that of `COc1ccccc1C(=O)NCCC(=O)Nc1ccc(S(=O)(=O)N2CC(C)CC(C)C2)cc1` (stereo not shown), 13.6%; in that of `Fc1ccc(-[n+]2nc(Nc3ccccc3)sc2-c2c(Cl)cccc2Cl)cc1.[Cl-]`, -2.28%. As for `COc1ccc(NS(=O)(=O)c2ccc(OCC(=O)N3CCOCC3)cc2)cc1`, the “hERG current change (%, negative = inhibition) at 1uM” value was determined as 10.5%. For `CCc1ccccc1-n1c(SCC(=O)NC)nnc1-c1cccnc1` the value was 20.3%. In the case of `Cn1c(=O)c2c(nc(SCC(=O)NCc3ccco3)n2C)n(C)c1=O` it was 3.4%. `CCOc1nc2cnccc2n(CC(=O)Nc2cccc(C)c2C)c1=O`: the “hERG current change (%, negative = inhibition) at 1uM” value is listed as 4.31%. Take `CC1CCCN(C(=O)CN2CCN(C(=O)c3ccco3)CC2)C1` (stereo not shown): the “hERG current change (%, negative = inhibition) at 1uM” value is on record as 9.98%.

For `COc1ccc2c(c1OC)CN(C)CCc1cc3c(cc1C(O)C2)OCO3` (stereo not shown), the “hERG current change (%, negative = inhibition) at 1uM” value is given as -0.22%. In the case of `O=[N+]([O-])c1cccc(S(=O)(=O)N2CCN(S(=O)(=O)N3CCOCC3)CC2)c1`, the “hERG current change (%, negative = inhibition) at 1uM” value was 17.3%.

Regarding `Cc1ccc(-n2c(SCC(N)=O)nnc2-c2ccco2)cc1`, the “hERG current change (%, negative = inhibition) at 1uM” value turned out to be 10.4%. Take `Cc1ccc2cccc(S(=O)(=O)N3CCN(c4cccc(Cl)c4)CC3)c2n1`: the “hERG current change (%, negative = inhibition) at 1uM” value stood at 6.54%. For `COc1cccc(NC(=O)CCNC(=O)c2ccccc2Cl)c1` the value was 11.2%; for `Cc1c(-c2ccn[nH]2)cc(NC(=O)c2ccc(Cl)cc2)c(=O)n1N`, 21.2%; for `COc1ccc(NC(=O)CSc2nc3ccccc3n2-c2ccccc2)c([N+](=O)[O-])c1`, 6.61%. For the molecule `Cc1cccc(N2C(=O)CN(Cc3cccs3)C2=S)c1`, the “hERG current change (%, negative = inhibition) at 1uM” value was determined as 7.77%. For `CC(C)CNC(=O)c1cccc(NC(=O)Cc2ccc(Cl)cc2)c1`, the “hERG current change (%, negative = inhibition) at 1uM” value stood at 12.8%. As to `CC(C)(C)OC(=O)NCCCCCc1cn(CC(=O)NCCCCCCCCCCC(=O)N2CCN(C(=O)OC(C)(C)C)CC2)nn1`, the “hERG current change (%, negative = inhibition) at 1uM” value worked out at 16.8%. As for `CCc1cc2c(NCCN3CCCCC3)ncnc2s1.Cl`, the “hERG current change (%, negative = inhibition) at 1uM” value is recorded as -55.9%. In the case of `CCOC(=O)c1c(C)[nH]c(C(=O)COC(=O)CSC)c1C` it was 8.31%. In the case of `Cc1ccc2c(c1)N(C(=O)CCC(=O)N1CCN(c3cccc(C)c3C)CC1)CCO2` it was 8.19%; in that of `O=C1CCC(=O)N(O)CCCCCNC(=O)CCC(=O)N(O)CCCCCNC(=O)CCC(=O)N(O)CCCCCN1`, 3.08%; in that of `Cc1ccc(OCCN2C(=O)S/C(=C\c3ccc(C)o3)C2=O)cc1`, 13.7%. For the molecule `Cc1ccc(/C=N/NC(=O)c2ccc(Cn3cc([N+](=O)[O-])cn3)o2)cc1`, the “hERG current change (%, negative = inhibition) at 1uM” value is given as -16.7%. `CC(C)N(Cc1ccccc1)CC(O)COc1ccc(S(=O)(=O)N2CCOCC2)cc1Cl` (stereo not shown): the “hERG current change (%, negative = inhibition) at 1uM” value was found to be 0.591%.

As to `CCOC(=O)N1CCC(C(=O)Nc2ccc(OCC)cc2)CC1`, the “hERG current change (%, negative = inhibition) at 1uM” value came to 5.09%.

As to `COc1ccc2c3c([nH]c2c1)C(C)=NCC3`, the “hERG current change (%, negative = inhibition) at 1uM” value amounted to 2.94%. Consider `c1ccc2nc3c(nc2c1)[nH]c1ccccc13`, for which the “hERG current change (%, negative = inhibition) at 1uM” value is given as -0.64%.

For the molecule `COc1cccc2cc(C(=O)NCc3ccc(F)cc3)c(=N)oc12`, the “hERG current change (%, negative = inhibition) at 1uM” value is on record as 7.15%.

With `CCCCN(C(=O)CNC(=O)c1ccco1)C(C(=O)NC1CCCCC1)c1ccc(OC)cc1OC` (stereo not shown), the “hERG current change (%, negative = inhibition) at 1uM” value is reported as 5.05%. As for `NC(=O)CC[C@@H]1NC(=O)[C@H](Cc2ccc(O)cc2)NC(=O)c2cc([N+](=O)[O-])cc(F)c2OCC[C@@H](C(N)=O)NC1=O`, the “hERG current change (%, negative = inhibition) at 1uM” value stood at 14.1%. As to `Cc1cc(C)c(S(C)(=O)=O)c(S(=O)c2ccc(Cl)cc2)n1` (stereo not shown), the “hERG current change (%, negative = inhibition) at 1uM” value turned out to be 3.19%. For `Cc1cc(C)nc(/N=C(\N)Nc2cccc(OCc3ccccc3)c2)n1` the value was -41.9%; for `O=S(=O)(NCC1CCCO1)c1ccc(Br)s1` (stereo not shown), 11.5%; for `COc1ccccc1NC(=O)CCCc1nnc2n(C)c(=O)c3sccc3n12`, 17.5%. Take `Cc1ccc(NS(=O)(=O)c2cc(C(=O)N3CCN(CCO)CC3)ccc2C)cc1`: the “hERG current change (%, negative = inhibition) at 1uM” value is reported as 5.41%. With `O=C1Nc2ccccc2C(O)(C(=O)NC2CC2)N1c1ccc(Cl)c(Cl)c1` (stereo not shown), the “hERG current change (%, negative = inhibition) at 1uM” value is recorded as 3.89%.

Regarding `CC(=O)N=C1SC2CS(=O)(=O)CC2N1c1ccccc1Cl` (stereo not shown), the “hERG current change (%, negative = inhibition) at 1uM” value was determined as 12.4%. In the case of `O=C(NCc1ccco1)C(c1ccncc1)N(C(=O)Cc1cccs1)c1ccccc1` (stereo not shown) it was -4.34%; in that of `O=C(CSc1n[nH]c(=O)[nH]c1=O)NCC1CCCCC1`, 3.79%; in that of `C/C(=N\OC(=O)c1ccc(Cl)cc1)c1sc(-c2ccccc2)nc1C`, 4.56%. For `S=C(NCCCc1ccccc1)NCc1ccccc1` the value was 9.51%; for `Cc1ccc(Cn2c(C(CO)Nc3nc(-c4ccc(Cl)c([N+](=O)[O-])c4)cs3)nc3ccccc32)cc1` (stereo not shown), 8.36%; for `OCCC#Cc1c(-c2ccsc2)sc2ccccc12`, 6.26%. In the case of `COc1ccc(C2N(c3ccc(OC)cc3)C(=O)C3CCCN32)cc1` (stereo not shown) it was 10.4%; in that of `COc1cc2[nH]c(=S)nc(NCc3ccc(C)cc3)c2cc1OC`, 11.9%; in that of `CC(O)(CS(=O)(=O)c1ccc(F)cc1)C(=O)Nc1ccc(C#N)c(C(F)(F)F)c1` (stereo not shown), 2.31%.
